Source: publication PMC2808332
These are yes or no findings as the source states them, for the method shown. Some binding calls cover weakened binding; strength is not graded here.

Chains of the proteins cited; added tags and fusions are not shown.
UniProt O60674: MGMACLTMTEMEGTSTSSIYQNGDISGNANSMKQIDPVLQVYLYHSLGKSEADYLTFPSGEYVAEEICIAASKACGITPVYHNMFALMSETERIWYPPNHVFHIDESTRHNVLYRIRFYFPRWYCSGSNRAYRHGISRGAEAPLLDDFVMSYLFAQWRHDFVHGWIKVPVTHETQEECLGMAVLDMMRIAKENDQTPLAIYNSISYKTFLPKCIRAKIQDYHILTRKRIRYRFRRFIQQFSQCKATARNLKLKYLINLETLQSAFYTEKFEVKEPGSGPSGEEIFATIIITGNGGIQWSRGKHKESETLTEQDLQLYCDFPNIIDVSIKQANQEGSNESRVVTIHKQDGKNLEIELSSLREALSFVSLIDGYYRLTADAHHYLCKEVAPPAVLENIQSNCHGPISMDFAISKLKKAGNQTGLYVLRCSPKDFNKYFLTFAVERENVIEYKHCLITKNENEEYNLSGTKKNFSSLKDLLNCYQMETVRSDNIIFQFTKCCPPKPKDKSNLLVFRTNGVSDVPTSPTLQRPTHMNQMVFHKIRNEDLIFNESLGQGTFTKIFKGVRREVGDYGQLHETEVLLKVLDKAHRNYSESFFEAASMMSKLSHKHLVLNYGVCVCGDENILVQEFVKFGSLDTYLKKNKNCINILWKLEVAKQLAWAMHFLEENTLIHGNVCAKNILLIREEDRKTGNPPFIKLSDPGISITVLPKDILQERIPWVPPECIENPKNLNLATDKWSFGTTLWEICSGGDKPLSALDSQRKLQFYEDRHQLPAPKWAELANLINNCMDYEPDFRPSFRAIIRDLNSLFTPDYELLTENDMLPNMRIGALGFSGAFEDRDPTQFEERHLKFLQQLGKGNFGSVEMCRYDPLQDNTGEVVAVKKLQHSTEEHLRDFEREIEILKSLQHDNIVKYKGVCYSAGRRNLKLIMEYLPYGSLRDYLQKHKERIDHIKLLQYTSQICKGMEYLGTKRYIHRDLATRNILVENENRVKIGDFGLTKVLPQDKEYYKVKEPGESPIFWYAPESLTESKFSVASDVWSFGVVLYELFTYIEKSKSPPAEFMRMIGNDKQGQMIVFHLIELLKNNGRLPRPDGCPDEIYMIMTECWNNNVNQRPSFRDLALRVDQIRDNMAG

Tests used:
Assay in all cases: peptide or protein array; Invitrogen Protoarray v4.0, about 8,400 human proteins spotted on nitrocellulose-coated glass slides; 10 µg biotinylated tag-free NEMO in 120 µl probing buffer (PBS, 0.5 mM DTT, 5 mM MgCl2, 5% glycerol, 0.05% Triton X-100), 4°C, 1.5 h; bound NEMO detected with labelled streptavidin; hits Z-score > 3, hits of the biotin-GST control array subtracted; both purified
Glycogenin 2 (human) = biological target: T1, Glycogenin 2 (human) (UniProt O15488)
T1 sequence: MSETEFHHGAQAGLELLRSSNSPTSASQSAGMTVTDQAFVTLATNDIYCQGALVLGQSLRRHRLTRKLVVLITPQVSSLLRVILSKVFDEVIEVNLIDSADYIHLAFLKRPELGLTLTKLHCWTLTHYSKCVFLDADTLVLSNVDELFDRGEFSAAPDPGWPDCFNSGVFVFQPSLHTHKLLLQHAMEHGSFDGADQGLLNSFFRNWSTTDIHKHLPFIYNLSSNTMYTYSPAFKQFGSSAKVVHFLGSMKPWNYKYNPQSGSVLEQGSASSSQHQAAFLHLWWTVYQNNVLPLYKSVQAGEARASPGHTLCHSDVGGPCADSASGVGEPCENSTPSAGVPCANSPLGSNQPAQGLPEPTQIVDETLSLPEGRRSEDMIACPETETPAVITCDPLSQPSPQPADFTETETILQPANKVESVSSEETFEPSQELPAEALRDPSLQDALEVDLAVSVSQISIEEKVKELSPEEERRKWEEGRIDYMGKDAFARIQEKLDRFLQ

[1] = biological target: T2, Chromosome 19 open reading frame 57 (human) (UniProt Q0VDD7)
T2 sequence: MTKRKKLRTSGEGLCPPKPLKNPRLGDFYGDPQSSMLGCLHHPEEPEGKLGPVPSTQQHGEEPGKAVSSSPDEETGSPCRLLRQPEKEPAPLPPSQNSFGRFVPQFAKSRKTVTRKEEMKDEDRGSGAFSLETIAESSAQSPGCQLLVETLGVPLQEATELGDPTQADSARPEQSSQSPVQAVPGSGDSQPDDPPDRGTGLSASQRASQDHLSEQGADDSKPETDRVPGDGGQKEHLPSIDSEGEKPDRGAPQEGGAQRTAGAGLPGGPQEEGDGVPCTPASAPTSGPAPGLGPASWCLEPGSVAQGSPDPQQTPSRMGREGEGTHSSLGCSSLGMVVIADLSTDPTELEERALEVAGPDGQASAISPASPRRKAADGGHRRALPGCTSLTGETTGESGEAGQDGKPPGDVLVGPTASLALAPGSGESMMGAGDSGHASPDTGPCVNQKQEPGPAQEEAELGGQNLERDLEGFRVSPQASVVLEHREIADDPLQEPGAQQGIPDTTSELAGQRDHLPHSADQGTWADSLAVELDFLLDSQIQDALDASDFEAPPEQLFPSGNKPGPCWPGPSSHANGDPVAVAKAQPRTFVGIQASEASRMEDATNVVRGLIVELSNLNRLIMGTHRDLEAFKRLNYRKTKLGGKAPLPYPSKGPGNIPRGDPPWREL

Janus kinase 2 (human) = Janus kinase 2 (human) (UniProt O60674)
[2] = biological target: T3, Myeloid/lymphoid or mixed-lineage leukemia; translocated to, 6 (human) (UniProt P55198)
T3 sequence: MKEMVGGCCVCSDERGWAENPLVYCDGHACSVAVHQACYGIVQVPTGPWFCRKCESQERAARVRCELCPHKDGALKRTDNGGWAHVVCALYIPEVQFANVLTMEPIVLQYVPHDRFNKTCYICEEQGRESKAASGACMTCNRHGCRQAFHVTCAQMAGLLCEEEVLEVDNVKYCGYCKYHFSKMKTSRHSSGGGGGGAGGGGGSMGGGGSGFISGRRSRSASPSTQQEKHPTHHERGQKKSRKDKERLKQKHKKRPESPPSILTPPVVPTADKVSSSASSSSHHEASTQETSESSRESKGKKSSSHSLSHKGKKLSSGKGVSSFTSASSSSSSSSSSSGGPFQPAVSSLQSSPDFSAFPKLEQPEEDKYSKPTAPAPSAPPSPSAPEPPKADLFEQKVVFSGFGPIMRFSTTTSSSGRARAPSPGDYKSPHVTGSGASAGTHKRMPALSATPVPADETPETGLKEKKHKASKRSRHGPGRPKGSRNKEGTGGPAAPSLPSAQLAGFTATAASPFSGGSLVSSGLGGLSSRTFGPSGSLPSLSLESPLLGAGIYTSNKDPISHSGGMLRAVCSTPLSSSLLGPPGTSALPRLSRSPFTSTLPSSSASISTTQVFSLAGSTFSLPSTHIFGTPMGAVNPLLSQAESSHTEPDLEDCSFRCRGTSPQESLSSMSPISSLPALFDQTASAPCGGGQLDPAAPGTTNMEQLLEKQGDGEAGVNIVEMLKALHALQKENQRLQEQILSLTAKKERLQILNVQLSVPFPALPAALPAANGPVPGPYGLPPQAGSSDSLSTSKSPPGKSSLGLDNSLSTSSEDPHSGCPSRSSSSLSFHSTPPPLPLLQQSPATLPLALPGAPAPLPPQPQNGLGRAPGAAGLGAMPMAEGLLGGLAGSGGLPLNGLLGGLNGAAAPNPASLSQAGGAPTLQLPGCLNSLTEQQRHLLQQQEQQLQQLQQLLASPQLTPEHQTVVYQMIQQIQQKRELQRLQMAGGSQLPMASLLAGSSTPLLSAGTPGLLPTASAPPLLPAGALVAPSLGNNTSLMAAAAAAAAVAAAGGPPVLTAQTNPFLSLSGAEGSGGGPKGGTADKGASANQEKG

Measured: binding

NEMO (NF-κB essential modulator), tag-free, biotinylated (from UniProt Q9Y6K9 1-419)
binds: all assays above
